Data on 89 compounds can be found in publication PMC4336329 (PLoS ONE, 2015).

Molecules are shown by their SMILES. About 14,000 (4.5%) of roughly 310,000 compounds showed an effect of 50% or more. Effects have a minus sign here. The list shows a part of the results.
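Also: peak tail current of the secondary pulse compared with the same well before compound.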

In the assay the target is human ether-à-go-go-related gene (hERG) potassium channel (human, UniProt Q12809). Description: primary screen, population patch clamp on CHO cells stably expressing hERG.
human ether-à-go-go-related gene (hERG) potassium channel, sequence (Q12809 whole entry, looked up): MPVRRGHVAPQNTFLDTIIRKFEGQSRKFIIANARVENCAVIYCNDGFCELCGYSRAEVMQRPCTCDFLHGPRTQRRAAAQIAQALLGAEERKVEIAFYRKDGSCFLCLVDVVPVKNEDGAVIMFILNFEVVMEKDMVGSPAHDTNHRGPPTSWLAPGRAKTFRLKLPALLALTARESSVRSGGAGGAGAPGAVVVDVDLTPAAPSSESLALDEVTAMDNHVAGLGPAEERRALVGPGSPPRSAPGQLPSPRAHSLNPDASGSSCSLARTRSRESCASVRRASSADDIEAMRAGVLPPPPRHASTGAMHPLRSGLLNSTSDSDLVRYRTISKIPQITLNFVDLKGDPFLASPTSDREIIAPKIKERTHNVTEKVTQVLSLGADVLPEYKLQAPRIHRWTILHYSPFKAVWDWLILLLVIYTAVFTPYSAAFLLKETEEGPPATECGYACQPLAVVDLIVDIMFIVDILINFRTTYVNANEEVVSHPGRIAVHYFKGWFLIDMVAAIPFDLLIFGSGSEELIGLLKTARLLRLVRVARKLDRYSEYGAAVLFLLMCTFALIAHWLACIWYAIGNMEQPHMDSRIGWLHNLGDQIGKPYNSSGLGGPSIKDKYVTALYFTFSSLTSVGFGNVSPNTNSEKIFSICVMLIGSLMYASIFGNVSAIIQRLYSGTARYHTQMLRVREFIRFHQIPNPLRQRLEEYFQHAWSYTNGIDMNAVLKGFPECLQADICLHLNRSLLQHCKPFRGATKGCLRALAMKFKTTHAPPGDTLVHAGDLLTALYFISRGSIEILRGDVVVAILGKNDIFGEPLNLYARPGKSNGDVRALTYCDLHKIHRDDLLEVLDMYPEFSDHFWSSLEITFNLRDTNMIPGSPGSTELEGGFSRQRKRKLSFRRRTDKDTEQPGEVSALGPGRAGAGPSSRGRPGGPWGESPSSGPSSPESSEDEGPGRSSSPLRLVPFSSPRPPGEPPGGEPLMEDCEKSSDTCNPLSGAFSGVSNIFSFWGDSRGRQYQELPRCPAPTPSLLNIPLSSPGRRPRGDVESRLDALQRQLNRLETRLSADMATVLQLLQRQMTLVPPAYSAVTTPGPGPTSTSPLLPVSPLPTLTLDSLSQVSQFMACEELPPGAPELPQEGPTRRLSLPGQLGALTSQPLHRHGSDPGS
With `CCN(CC)CC#CC(C)(C)OC(C)=O`, the “hERG current change (%, negative = inhibition) at 10uM” value amounted to 5.6%. Next, `O=C(NCC1CCCO1)c1ccc(COc2ccc(Br)cc2)cc1` (centres unmarked): -13.7%. Consider `CCOC(=O)N1CCN(S(=O)(=O)c2ccc(F)c(C(=O)Nc3cc(C)cc(C)c3)c2)CC1`, for which the “hERG current change (%, negative = inhibition) at 10uM” value stood at 1.99%. In the case of `COc1ccc(C2NC(=O)Cc3cc(OC)c(OC)cc32)cc1OC` (centres unmarked), the “hERG current change (%, negative = inhibition) at 10uM” value amounted to 5.46%. As for `CC(C)C(C(=O)NC1CCCC1)N(CC1CCCO1)C(=O)CNS(=O)(=O)c1ccccc1` (centres unmarked), the figure is 15.1%.

For the compound `Cc1ncc(CN2CCCC(C(=O)Nc3ccc(-c4ccco4)cc3)C2)cn1` (centres unmarked), the “hERG current change (%, negative = inhibition) at 10uM” value is recorded as -11.5%. As to `COc1ccc(OC)c(C2=Nn3c(nnc3-c3cc(OC)c(OC)c(OC)c3)SC2)c1`, the “hERG current change (%, negative = inhibition) at 10uM” value is on record as -21%.

On to `CC(C)CNC(=O)NC(=O)COc1ncnc2sccc12`, for which the “hERG current change (%, negative = inhibition) at 10uM” value is 5.9%. Next, `Cc1ccc(S(C)(=O)=O)cc1C(=O)N1CC(C(N)=O)Oc2ccccc21` (centres unmarked): 15.6%. As for `Cc1nn(CC(=O)c2ccc(Br)s2)c(C)c1[N+](=O)[O-]`, the figure is -3.49%; as for `COc1ccc(OC)c(C2C3CN(C(C)C)CC=C3C(C#N)=C(N)C2(C#N)C#N)c1` (centres unmarked), -16.2%.

As to `Cc1ccc(C2(C)NC(=O)N(CC(=O)Nc3nc(-c4ccccn4)cs3)C2=O)cc1` (centres unmarked), the “hERG current change (%, negative = inhibition) at 10uM” value is -5.26%. With `O=C(CSc1nc(-c2ccccc2)cc(=O)[nH]1)N1CCc2ccccc21`, the “hERG current change (%, negative = inhibition) at 10uM” value worked out at 6.68%. Next, `O=C(NCCc1ccc(F)cc1)C(=O)Nc1cc2c3c(c1)CC(=O)N3CCC2`: -22%; `CCOc1ccc(NS(=O)(=O)c2ccc(OC)c(C)c2)cc1`: -4.92%. As for `O=C1CC(SCc2nc3ccccc3[nH]2)C(=O)N1c1cccc(Cl)c1` (centres unmarked), the “hERG current change (%, negative = inhibition) at 10uM” value is reported as -43.6%. Next, `CCOC(=O)C1=C(c2ccccc2)Nc2ncnn2C1c1ccccn1` (centres unmarked): 13.6%. Next, `COC(=O)c1cnc[nH]1`: -2.52%; `COc1ccc(-c2[nH]ncc2CN2C[C@@H]3CCC[C@H]2C3)c(F)c1`: 8.16%. As for `CC(=O)Nc1nnc(Cc2ccccc2)s1`, the figure is 8.52%; as for `CCC1CCCCN1C(=O)COc1c(Br)cc(Br)c2cccnc12` (centres unmarked), -40.1%. For the compound `Cc1cc(=O)n2[nH]c(-c3ccc(F)cc3)cc2n1`, the “hERG current change (%, negative = inhibition) at 10uM” value is reported as 8.47%. For `CC(=O)Nc1ccc(S(=O)(=O)NCCC(=O)NCCCc2ccccc2)cc1`, the “hERG current change (%, negative = inhibition) at 10uM” value is listed as -4.34%.

On to `COc1ccc(/C=N/n2cncn2)cc1Cn1cc([N+](=O)[O-])cn1`, for which the “hERG current change (%, negative = inhibition) at 10uM” value is recorded as -32.1%. Turning to `COCCCN(C(=O)c1cc2c(s1)CCC2)c1c(N)n(Cc2ccccc2)c(=O)[nH]c1=O`, the “hERG current change (%, negative = inhibition) at 10uM” value was found to be 9.69%. Turning to `O=C(CN(Cc1ccccc1F)C(=O)c1csnn1)NCc1ccc2c(c1)OCO2`, the “hERG current change (%, negative = inhibition) at 10uM” value is listed as -22%. As for `COCc1c(Br)c(C)nc(OCC(=O)N/N=C/c2ccc(C)o2)c1C#N`, the figure is 3.75%; as for `CCc1ccc(/C=N/n2c(COc3ccccc3)n[nH]c2=S)cc1`, 20.4%; as for `O=C(NCc1cccc(C(F)(F)F)c1)c1cc(Cl)ccc1Cl`, 20.9%. For the compound `COc1ccc2[nH]cc(CCNC(=O)COc3cc(C)cc4oc(=O)cc(C)c34)c2c1`, the “hERG current change (%, negative = inhibition) at 10uM” value is -24.3%. As to `O=C(NCCN1C(=O)C2C3C=CC(C3)C2C1=O)Nc1ccccn1` (centres unmarked), the “hERG current change (%, negative = inhibition) at 10uM” value was found to be 3.05%. Consider `COc1ccc(C(=O)COc2cccc(NC(=O)c3ccco3)c2)cc1`, for which the “hERG current change (%, negative = inhibition) at 10uM” value is -32.8%. As for `CCCOc1ccccc1NC(=O)c1ccc(N)cc1`, the figure is -19.9%.

For the compound `CSc1ccccc1NC(=S)NC1CCCCC1`, the “hERG current change (%, negative = inhibition) at 10uM” value was 4.6%. Next, `COc1ccc(S(=O)(=O)Cc2ccc(C(=O)NC3CC3)o2)cc1`: -2.21%; `CCOC(=O)c1cccc(-n2c(C)nc3ccccc3c2=O)c1`: -2.44%; `CC1CC(CCC(=O)NC(=S)Nc2ccc(S(N)(=O)=O)cc2)C(=O)O1` (centres unmarked): 14.5%. As for `CCC1(C)CC(CC(=O)O)(c2ccccc2OC)CCO1` (centres unmarked), the figure is 1.8%; as for `CCOC(=O)Cc1csc(NC(=O)c2sc3nc4ccc(CC)cc4cc3c2N)n1`, 0.191%; as for `CC(C)c1ccc(N(CC(=O)NCCc2ccccc2)C(=O)c2csnn2)cc1`, -60%.

For `Cc1cccc(NC(=O)C2CC(O)CN2C(=O)OCc2ccccc2)c1` (centres unmarked), the “hERG current change (%, negative = inhibition) at 10uM” value was -0.191%. Next, `Cc1ccc(S(=O)(=O)NCCC(=O)N2CCC(C(N)=O)CC2)cc1C`: -6.54%.

`COc1ccc(NC(=O)CSc2nncn2C)cc1`: the “hERG current change (%, negative = inhibition) at 10uM” value was 24.7%. Next, `Cc1ccc2cccc(SCC(=O)Nc3ccc(F)cc3)c2n1`: 2.39%; `N#Cc1ccccc1Sc1ccccc1C(=O)OCC(=O)NC1CCCCC1`: -3.71%; `Cc1ccc2[nH]c3ccccc3c(=O)c2c1`: 5.96%. In the case of `Cc1cc2ncn(CC(C)C)c2cc1C`, the “hERG current change (%, negative = inhibition) at 10uM” value is listed as -3.79%. For the compound `CC(OC(=O)c1ccc(-n2cnnn2)cc1)C(=O)Nc1ccccc1[N+](=O)[O-]` (centres unmarked), the “hERG current change (%, negative = inhibition) at 10uM” value was -21.6%. As for `CCOC(=O)c1cccc(P(C)(C)=O)c1`, the figure is 11%; as for `O=C(CCc1cn(Cc2ccc(F)cc2)c2ccccc12)N1CCOCC1`, -16.4%. Next, `Cc1ccc(-n2c(C)cc(/C=N/NC(N)=S)c2C)cc1`: 6.94%; `COc1cc2c(cc1OC)C(NC(=O)C(F)(F)F)C/C2=N\O` (centres unmarked): -38.2%; `Cc1nnc(Cl)c2nn(-c3ccccc3)c(C)c12`: 16.3%.

`O=S(=O)(N/N=C\c1ccc2c(c1)OCO2)c1ccc(F)cc1`: the “hERG current change (%, negative = inhibition) at 10uM” value is on record as 17.3%. As for `Cn1c(=O)c2c(nc(Oc3ccc4c(c3)OCO4)n2Cc2ccc(F)cc2)n(C)c1=O`, the figure is 7.27%. In the case of `COCCSc1ccccc1C(=O)Nc1nccs1`, the “hERG current change (%, negative = inhibition) at 10uM” value was -2.77%.

For `COc1ccc(C(=O)Nc2ccc(/C(C)=N/NC(=O)c3ccncc3)cc2)cc1`, the “hERG current change (%, negative = inhibition) at 10uM” value is recorded as -33.5%. As for `COc1ccc(OCc2nnc3n2N=C(c2ccc(C)cc2)CS3)cc1`, the figure is 8.09%. As for `O=S1(=O)N[C@H](c2ccccc2)C[C@H](c2ccc(C(F)(F)F)cc2)O1`, the figure is 11.4%; as for `COc1ccc(Sc2cc(C(F)(F)F)nc(-c3ccccn3)n2)cc1`, -27.1%; as for `CCN(CC(=O)NCc1cccs1)C(=O)c1cccc(S(=O)(=O)Nc2ccc(OC)cc2)c1`, -37.4%.

For the compound `Cc1ccc(-c2nnn(CC(=O)Nc3ccc(S(=O)(=O)N4CCC(C)CC4)cc3)n2)cc1`, the “hERG current change (%, negative = inhibition) at 10uM” value was -4.92%. As for `CCC(CC)COC(=O)C1=C(C)NC(=O)NC1c1ccc([N+](=O)[O-])cc1` (centres unmarked), the figure is 11.6%; as for `Cc1ccc(S(=O)(=O)NC2CC(C)(C)NC(C)(C)C2)cc1`, 29.9%. For the compound `Cc1nn2cc(-c3cccc(Cl)c3)cnc2c1Cl`, the “hERG current change (%, negative = inhibition) at 10uM” value was 11.6%. As for `O=c1cc(CN2CCN(c3cccc(C(F)(F)F)c3)CC2)nc2sccn12`, the figure is -46.3%.

Consider `O=C(NN1C(=O)NC2(CCCCC2)C1=O)c1ccc(-c2ccc([N+](=O)[O-])cc2)o1`, for which the “hERG current change (%, negative = inhibition) at 10uM” value is -8.54%. As for `Cc1ccc(NC(=O)CN2C(=O)NC(Cc3c[nH]c4ccccc34)C2=O)cc1` (centres unmarked), the “hERG current change (%, negative = inhibition) at 10uM” value is on record as -0.576%. Next, `Cc1ccc(-c2cc(C(=O)N/N=C/c3ccco3)[nH]n2)cc1`: -12.1%; `C/C(N)=C(/C#N)C(=O)CSc1nc(C2CCCCC2)n(-c2ccccc2)n1`: -30%. As for `O=C(/C=C/c1ccncc1)c1cc(Cl)ccc1O`, the figure is 18.7%.

As to `CCc1ccccc1NC(=O)CN1C(=O)C2CCCN2c2ncc(Cl)cc21` (centres unmarked), the “hERG current change (%, negative = inhibition) at 10uM” value is -3.09%.

With `CC(C)c1ccc(C(O)P(=O)(OCc2ccccc2)c2ccc(N(C)C)cc2)cc1` (centres unmarked), the “hERG current change (%, negative = inhibition) at 10uM” value is listed as 14.6%.

`CCCCc1ccc(NC(=O)N[C@@H](CC(C)C)C(=O)O)cc1`: the “hERG current change (%, negative = inhibition) at 10uM” value was determined as 7.73%.

As for `COc1cc(C(=S)N2CCC(C(N)=O)CC2)ccc1O`, the “hERG current change (%, negative = inhibition) at 10uM” value is -8.67%. As for `COc1ccccc1N1CCN(/N=C/c2ccccc2C(=O)O)CC1`, the figure is 13.8%. Next, `CC(C)Cn1c(N)c(C(=O)COC(=O)CC23CC4CC(CC(C4)C2)C3)c(=O)n(C)c1=O`: -16.2%. Next, `Cc1c(CCOC(=O)c2ccc([N+](=O)[O-])cc2)sc[n+]1CC(=O)c1ccccc1.[Br-]`: -63.7%; `Cc1cccc(OCCOCCN2CCOCC2)c1C`: -10.5%. In the case of `Cc1ccc2[nH]c(=O)c(CN(CCc3ccccc3)C(c3nnnn3Cc3ccco3)C(C)C)cc2c1` (centres unmarked), the “hERG current change (%, negative = inhibition) at 10uM” value is listed as 21.2%. `S=C(Nc1ccccc1Cl)N1CCCC1`: the “hERG current change (%, negative = inhibition) at 10uM” value amounted to 21.9%. Next, `Cc1cc([N+](=O)[O-])c2ccccc2[n+]1[O-]`: 8.51%; `Clc1ccccc1OCCn1ccnc1`: -6.02%.

For the compound `CCCCn1c(N)c(N(CC(C)C)C(=O)c2cc3c(s2)CCC3)c(=O)[nH]c1=O`, the “hERG current change (%, negative = inhibition) at 10uM” value is listed as -2.24%. Next, `C/C=C(\C)C(=O)NCCN1C2=NC[C@H](Cc3ccc(O)cc3)N2C[C@@H]1Cc1ccc(OC)cc1`: -2.89%. As for `CCCCN(C)c1c(N2CCC(C(=O)OCC)CC2)c(=O)c1=O`, the figure is -43.7%; as for `O=C(O)CSc1nnc(-c2ccccc2)o1`, 10.9%; as for `CNC(=O)c1c(NC(=O)c2ccc(S(=O)(=O)N(C)c3ccccc3)cc2)sc2c1CCN(C(C)C)C2`, 2.88%. For `CCCCc1cc2c(c(NC(C)=O)n1)c(=O)oc1ccccc12`, the “hERG current change (%, negative = inhibition) at 10uM” value is given as 11.3%.
